Values marked as one replicate rest on one cluster of the flow cell; about a third of the high ones do not repeat.
Test system: ATP
Experiment: switch fluorescence ratio, 500 uM ATP over buffer (Cy3 cluster intensity, sum of 5 cycles each) (fold (ratio)); higher = stronger signal-on switching upon ATP binding; sequences stand for … in TCGTCGGCAGCGTCAGATGTGTATAAGAGACAGTTTTTTTTTTTTTTTTTTTTTTTTT…TC
Settings: aptamer strand: ATP DNA aptamer (quencher-CACCTGGGGGAGTATTGCGGAGGAAGG + anchor), 100 nM annealed; ATP concentration: 500 uM; one replicate
Procedure, shortened: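 The quencher-labelled ATP aptamer, at 100 nM, was annealed to Cy3-labelled switching-strand clusters on a modified Illumina MiSeq flow-cell. The clusters were imaged in selection buffer, then after 15 min with 500 uM ATP at 22 °C, and this buffer/ATP cycle ran five times with NaOH stripping and re-annealing between runs. Per-cluster fluorescence ratios, summed target-cycle over summed buffer-cycle Cy3 intensity, were averaged per switch-domain sequence. Clusters outside 100-1000 RFU were excluded.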
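Also: ATP exposure 15 min at 22 °C before imaging.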

Row | Sequence | switch fluorescence ratio
1 | GGTACTGTTG | 0.986
2 | TACCCCCTTT | 1.06
3 | TTGGATATAC | 1.07
4 | GAATTCTGCC | 1.01
5 | GAGACAATTT | 0.986
6 | GGCCGGCCGG | 1.01
7 | GGCGTTCTAG | 0.995
8 | ATTATTGTCT | 0.949
9 | GCCGCCGATC | 1.08
10 | CTGCGCCGGG | 1.04
11 | TACATCTCTT | 0.977
12 | GGGTCAGAGT | 1.01
13 | CACCACAAGC | 2.26
14 | CTGGAGCTGG | 1.59
15 | AGCAGTTGAG | 0.999
16 | CGGGTCTAGA | 1.04
17 | CCGAGCCTAT | 2.36
18 | GCTCTGCTGT | 1.39
19 | ATTCGGAAAA | 0.998
20 | GTCACTGTTT | 0.974
21 | TTGCTTTTC | 1.03
22 | TTCTGTAACG | 1.01
23 | CTAGATGACC | 1.02

Row | Sequence | switch fluorescence ratio
24 | GCCAGCTACT | 1.08
25 | CTGCAGGGCC | 1.09
26 | ATGTACACTC | 1.03
27 | ACTGCGTCAG | 0.998
28 | CATTGCTGTA | 0.963
29 | AATACTTTCG | 1.1
30 | TCAGGTAAGG | 0.989
31 | TCAGGCTAAG | 1.02
32 | TTTTCCATAC | 1.22
33 | ACAGAAAGGC | 1.07
34 | GTTATCTAGG | 1
35 | AACGGGAAGT | 1.01
36 | CTTTCGGTGG | 0.972
37 | AGGAGAATA | 0.988
38 | GCAGGCCAAG | 1.23
39 | TATCTAAAAT | 1.01
40 | GAGGGTTAAA | 1.04
41 | GTGGTTGGG | 0.945
42 | ATGACCGAAG | 1
43 | GGATTCGGTA | 1.01
44 | GGATGGCCCA | 0.953
45 | TTACAATTGC | 1.36
46 | CTTATACCGC | 1.12

Row | Sequence | switch fluorescence ratio
47 | TCCTTCGATT | 1.42
48 | ACCTTGGCGG | 1.02
49 | CATTGGTACC | 1.05
50 | TGTCCGTTG | 1.05
51 | ACCCGAAGGA | 0.984
52 | CTTGACAGTT | 0.969
53 | GACGGTTCGA | 0.974
54 | TGAAGTTTGA | 1.02
55 | TTTCATTGCT | 1.02
56 | TCCGGACATT | 1.05
57 | AGCCACATG | 0.999
58 | TGGTGTAAG | 1
59 | CGTACCACCT | 1.08
60 | CGTTATTAAC | 1.01
61 | AAGGGAGTGG | 0.981
62 | TAACTGACGC | 1.2
63 | GCAGTAAGTC | 1.04
64 | GAGGGATCAA | 0.987
65 | TGGCAGATAG | 1.02
66 | TCAATGGCCT | 1.05
67 | TTTGGTCTAA | 0.997
68 | TAGTATATGT | 1.01
69 | ACTATGAAGA | 1.03

Row | Sequence | switch fluorescence ratio
70 | AGCGCTGTTC | 1.03
71 | ATTAGCTTTA | 1.01
72 | ACCTTCAGTT | 1.05
73 | TTTCGTGATT | 2.92
74 | AGGCGTTTT | 0.956
75 | CTTTCGGGGT | 0.952
76 | TCAGGTATCA | 0.992
77 | TAAACGTTGA | 1.01
78 | CTTAAGTGGA | 1.01
79 | AGTGATGTTT | 0.983
80 | TAAACCTAAG | 1.09
81 | CATGTGCACG | 0.983
82 | TAGTACAAGC | 1.03
83 | CAACTGCGGT | 1
84 | CCCGTCTATA | 1.34
85 | AGGTCAGTTG | 0.988
86 | ACAAATCCGA | 0.937
87 | AGACGTGCTT | 0.952
88 | CGGATAATTC | 1.06
89 | GTTCGTACTA | 1.01
90 | CCAAATGGAT | 1
91 | AGGTTACTCG | 1.01
92 | GAGAGTACCG | 1.02

Row | Sequence | switch fluorescence ratio
93 | CCACCCCAGT | 2.16
94 | GTAGAGGGAG | 0.989
95 | ACTTTGGTCA | 0.979
96 | ATGTTCTTG | 0.996
97 | GCCATGTCGG | 0.971
98 | GTTCCGATAT | 1.01
99 | AGTTTAGTTG | 1.02
100 | CCATTTCTTA | 0.999
101 | GCTGGCGTCT | 1.07
102 | CACTACCGAG | 1.13
103 | CTAGAACTGG | 1.01
104 | GGCACCCGGC | 1.03
105 | ACTATCTGCT | 0.986
106 | ATCATTTTGT | 0.996
107 | TGCAGAACT | 1.06
108 | TCCGTAGTTC | 4.4
109 | ACAGGTATTG | 1
110 | AGGACGTTA | 1.1
111 | GGTGTTTAAC | 0.971
112 | AACAATCATA | 0.997
113 | AATAGGAGAT | 0.966
114 | AGGGTTGTTT | 0.959
115 | ACGGTGGGTT | 0.982

Row | Sequence | switch fluorescence ratio
116 | ATTTATCCG | 0.989
117 | GTTGTCTTGG | 1
118 | TGAGGTCAAT | 1.02
119 | TAATAGGAGG | 0.997
120 | GGAGTTCTTG | 0.987
121 | CCAGCTCTGC | 1.05
122 | TGTTAGCGGG | 0.984
123 | ATGTTCGGTT | 0.963
124 | AGTTATAGAA | 0.933
125 | AACTTCGG | 1.06
126 | CGTAAATACC | 1.71
127 | TCCTTATGC | 1.1
128 | CCCCAACTGG | 1.07
129 | CTCATGCCGT | 1.03
130 | TGCCTCAGCA | 1.21
131 | CTCTCAGACC | 1.03
132 | CCCCCGTTGA | 1.86
133 | GTATTCGGAT | 0.989
134 | GCATAGGTGG | 1.03
135 | ATAGCCGGGA | 1.05
136 | TGATCGTAGT | 0.984
137 | CGTTATAAGA | 0.99
138 | TATAATAATG | 1

Row | Sequence | switch fluorescence ratio
139 | AAGCAGGGC | 1.01
140 | AATTGTAGCG | 0.965
141 | CAATGTTCTT | 0.996
142 | GATCGCATCA | 1.06
143 | CACGGGGCCA | 1.05
144 | CAACTTTCGA | 1.04
145 | TCACTTAGCT | 1
146 | TGACTTGTGG | 0.985
147 | AATGAACATC | 1.02
148 | CGTGGTTCGG | 1
149 | GTTTACGAGC | 0.998
150 | CTGTATCTCG | 1
151 | GAATATTGGT | 0.99
152 | AAAAAGAGCG | 0.923
153 | TACCACTCGT | 1.01
154 | AGGCTATTAC | 1.37
155 | CCTCAGCAAG | 2.24
156 | GGACCCAGAA | 1.02
157 | GACATGTAGA | 0.986
